Assay results reported in PubChem BioAssay AID463173 (ICCB-Longwood Screening Facility, Harvard Medical School, 2010).
The whole screen tested about 52,000 compounds, of which about 4,300 (8.3%) were called active. No stated cut-off is given here; in the data, active means survival mostly below about 52% (no sharp cut-off); inactive means mostly above about 56%. This is one part of the list.

Tested on: DeltatarO mutant
Assay: growth inhibition of S. aureus wild type versus tarO mutant, primary screen, teichoic acid synthesis inhibitors, RN4220, OD600 (AID 463173)
Conditions: OD600, 18 h, active compounds read low, screened at 18.75 µg/mL (by protocol)

Row | SMILES | survival
1 | O=C(CSc1nnc2ccc3ccccc3n12)c1ccc(F)cc1 | inactive: 58%
2 | COc1ccccc1CNC(=O)c1cnc2sc(N3CCCCCC3)nn2c1=O | inactive: 75%
3 | Cc1nc2sc(C(N)=O)c(N)c2c(-c2ccc(Br)cc2)c1C(=O)Nc1ccc(Cl)cc1 | active: 10%
4 | Cc1cccc(NC(=O)c2ccc(-c3nc(CSc4ccccc4)c(C)o3)cc2)c1C | inactive: 89%
5 | CSc1ccc(CNC(=O)CCn2c(=O)c3cccn3c3ccc(F)cc32)cc1 | inactive: 59%
6 | Cc1ccccc1C(=O)Nc1ccc2c(c1)CCCN2C(=O)c1cccs1 | inactive: 83%
7 | Cc1ccc(-n2ncc3c(=O)n(CC(N)=O)cnc32)cc1 | inactive: 98%
8 | CCOc1ccc(C(=O)c2cnc3ccc(Cl)cc3c2S(=O)(=O)c2ccc(C)cc2)cc1 | inactive: 80%
9 | CCN(CC)c1ccc(/C=C(/C#N)C(=O)NC(C)C)o1 | inactive: 63%
10 | Cc1ccc(-n2nc(CO)c(C(=O)NCCCc3ccccc3)n2)cc1 | inactive: 87%
11 | O=C(NCCCO)Nc1c[nH]c2ccccc2c1=O | inactive: 96%
12 | NC(=O)Cn1c(=O)n(CCCCCC(=O)NCc2ccccc2)c(=O)c2sccc21 | inactive: 53%
13 | Cc1ccc(-n2nc(C(=O)Nc3ccc(C)c(F)c3)c3c4ccccc4n(C)c3c2=O)cc1 | inactive: 92%
14 | CC(=O)Nc1nonc1-c1nnc(SCC(=O)Nc2ccc(C)c(Cl)c2)n1-c1ccccc1 | inactive: 49%
15 | COc1ccc(-n2c(=O)c3ccccc3n(Cc3ccccc3C)c2=O)c(OC)c1 | inactive: 65%
16 | CC(=O)c1ccc(NC(=O)c2ccc(-c3nc(COc4ccc(C)cc4)c(C)o3)cc2)cc1 | inactive: 84%
17 | Cc1nn(-c2ccc3nnc(C)n3n2)c(C)c1CCC(=O)Nc1ccc(OC(F)(F)F)cc1 | inactive: 79%
18 | COc1ccc(-c2cn3nc(N4CCCC(C(=O)NCc5ccccc5OC)C4)sc3n2)cc1 (centres undefined) | inactive: 77%
19 | Cc1occc1C(=O)NCc1ccccc1 | inactive: 97%
20 | CCOC(=O)c1cnc2c(ccc3ccccc32)c1Nc1ccc(Cl)cc1 | active: 23%
21 | Cc1ccc(NC(=O)CS(=O)CC(=O)Nc2ccc(N3CCOCC3)cc2)cc1Cl (centres undefined) | inactive: 93%
22 | CC(=O)Nc1ccc(NS(=O)(=O)c2c(C)nc3sccn3c2=O)cc1 | inactive: 61%
23 | CCOc1ccc(CNC(=O)C2CCCN(S(=O)(=O)N(C)c3ccc(F)cc3)C2)cc1OC (centres undefined) | inactive: 102%

Row | SMILES | survival
24 | COc1cccc(Cn2c(NCc3ccc(C)cc3)nc3c2c(=O)n(C)c(=O)n3C)c1 | inactive: 79%
25 | O=C(Nc1ccc(Cl)cc1)Nc1ccc(N2CCOCC2)cc1 | inactive: 75%
26 | Cc1ccc(NC(=O)Cn2c(=O)n(Cc3nc(C)no3)c(=O)c3cc4c(cc32)OCO4)c(Cl)c1 | inactive: 81%
27 | Cc1cccc(C)c1NC(=O)Cn1c(=O)n(Cc2ccco2)c(=O)c2ccc(C(=O)NC3CCCC3)cc21 | inactive: 94%
28 | CC1Cc2cc(S(=O)(=O)CCC(=O)Nc3ccc(F)c(Cl)c3)ccc2N1C(=O)C1CC1 (centres undefined) | inactive: 66%
29 | CCC(=O)N1c2ccccc2NC2=C(C(=O)CC(C)(C)C2)C1c1ccccn1 (centres undefined) | inactive: 82%
30 | Cc1ccc(S(=O)(=O)c2nc(-c3ccco3)oc2SCC(=O)Nc2ccc(F)cc2)cc1 | inactive: 75%
31 | O=C(CCn1c(=O)c2sccc2n(Cc2cccc(F)c2)c1=O)NCc1ccc2c(c1)OCO2 | inactive: 97%
32 | COC(=O)c1cc(-c2ccc(OC)c(OC)c2)c2c(=O)[nH]c(=O)n(C)c2n1 | inactive: 94%
33 | CCC(=O)N1CCc2cc(S(=O)(=O)NC(CC(C)C)C(=O)NCc3ccc(F)cc3)ccc21 (centres undefined) | inactive: 80%
34 | COc1ccc(C(=O)Nc2noc3ccccc23)cc1 | inactive: 69%
35 | Cc1cccc(NC(=O)CSc2nccn2-c2cccc(Cl)c2)c1C | inactive: 85%
36 | CCOc1cc(C2c3c(-c4ccccc4O)n[nH]c3C(=O)N2Cc2cccnc2)ccc1O (centres undefined) | inactive: 93%
37 | CCC(C(=O)NCc1ccccc1Cl)n1nc(C)c2sc3ccccc3c2c1=O (centres undefined) | inactive: 103%
38 | Cc1ccc(NC(=O)c2sc(-n3nc(C)c(Cc4ccc5c(c4)OCO5)c3C)nc2C)cc1C | inactive: 100%
39 | C=CCC(NCc1ccco1)c1ccccc1 (centres undefined) | inactive: 69%
40 | Fc1ccc(Cn2c(-c3cccc(Br)c3)nc3ccccc32)cc1 | inactive: 109%
41 | CCOc1ccc(CCNC(=O)Cn2nc(CC)n3c(cc4sccc43)c2=O)cc1 | inactive: 131%
42 | O=C(Nc1c2c(nn1-c1ccc(Cl)cc1)CS(=O)(=O)C2)c1ccccc1F | inactive: 77%
43 | O=C(NCCc1nc2ccccc2n1CCCOc1ccc(Cl)cc1)C1CCCCC1 | active: 24%
44 | Cc1nn2c(C)c(C(=O)NCC(C)c3ccccc3)cnc2c1-c1ccccc1 (centres undefined) | inactive: 101%
45 | COc1ccc(NC(=O)CSc2nc(-c3ccco3)nc3cc(=O)[nH]n23)cc1 | inactive: 79%
46 | CCOC(=O)CN1C(=O)c2cccnc2Oc2ccccc21 | inactive: 87%

Row | SMILES | survival
47 | Cc1cc(C)cc(NC(=O)CSCc2cc(=O)c3ccc(C)c(C)c3[nH]2)c1 | inactive: 80%
48 | CNS(=O)(=O)c1cn(CC(=O)N2CCN(c3cc(C)ccc3C)CC2)cc1S(=O)(=O)NC | inactive: 92%
49 | O=c1cc(-c2ccccc2)n2c(SCc3cccc([N+](=O)[O-])c3)nnc2[nH]1 | inactive: 69%
50 | COc1ccccc1-n1nc(-c2ccccc2)c2cnc3cc(C(F)(F)F)ccc3c21 | inactive: 81%
51 | CCOC(=O)c1ccc(NC(=O)COC(=O)c2cn(CC)c3nc(C)ccc3c2=O)cc1 | inactive: 81%
52 | Cc1cccc(C)c1OC(=O)CSc1nnc(-c2cccs2)o1 | inactive: 75%
53 | COc1ccc(-c2oc3ncn4nc(-c5ccccc5C)nc4c3c2-c2ccc(OC)cc2)cc1 | inactive: 110%
54 | COc1ccc(Cl)cc1NC(=O)CSc1nc(-c2ccco2)cc(C(F)(F)F)n1 | active: 31%
55 | Cc1ccc(NC2OC(=O)c3ccccc32)cc1 (centres undefined) | active: 31%
56 | CCOc1cc(C(=O)N2CCC(c3ccncc3)CC2)cc(OCC)c1OCC | active: 17%
57 | CCOc1ccc(NC(=O)CN2CCN(CC(=O)Nc3ccccc3OCC)CC2)cc1 | inactive: 92%
58 | NC(=O)C1CCN(C(=O)Cn2c(-c3cccs3)cc3ccccc32)CC1 | inactive: 73%
59 | CCCCN(c1ccccc1)S(=O)(=O)c1ccc2c(c1)CC(C)N2C(=O)C1CC1 (centres undefined) | inactive: 50%
60 | COc1ccc(CCNC(=O)CCn2c(=O)c3cccn3c3cccnc32)cc1OC | inactive: 82%
61 | CCc1ccccc1Nc1nc2ccccc2n2cnnc12 | inactive: 129%
62 | CCCCNc1c2c3c(cccc3[nH]c1=O)C(=O)c1ccccc1-2 | inactive: 73%
63 | COc1ccc(C)cc1NS(=O)(=O)c1ccc2[nH]c(=O)c(=O)[nH]c2c1 | inactive: 64%
64 | CCn1ccc2cc(S(=O)(=O)N3CCCN(C(=O)NCCOC)CC3)ccc21 | inactive: 76%
65 | CC1CCCCN1S(=O)(=O)c1ccc(NC(=O)CSc2nc3ccccc3o2)cc1 (centres undefined) | inactive: 57%
66 | CCS(=O)(=O)N1CCc2cc(C(=O)Nc3cc(C(F)(F)F)ccc3Cl)ccc21 | inactive: 48%
67 | CC1CCN(C(=O)C2CCN(Cc3cccc(O)c3)CC2)CC1 | inactive: 100%
68 | COc1cccc(NC(=O)Cn2c(=O)n(CCCCC(=O)NCCc3ccccc3)c(=O)c3ccccc32)c1 | inactive: 79%
69 | CCOC(=O)C1=C(CN2CCN(c3cc(C)ccc3C)CC2)NC(=O)NC1c1ccc(Cl)cc1 (centres undefined) | inactive: 84%

Row | SMILES | survival
70 | O=C(CSc1nc(C2CC2)nc2ccccc12)N1CCCCC1 | inactive: 83%
71 | Cc1ccc(C)c(CN2C(=O)c3ccccc3S(=O)(=O)c3ccc(C(=O)N4CCN(c5ccccc5F)CC4)cc32)c1 | inactive: 79%
72 | O=S(=O)(Nc1ccc(-c2ccc(N3CCCC3)nn2)cc1)c1cccc(C(F)(F)F)c1 | inactive: 119%
73 | COc1ccc(CNC(=O)CCc2nnc3n(CC(C)C)c(=O)c4ccccc4n23)cc1 | inactive: 90%
74 | N#CCNS(=O)(=O)c1ccccc1 | inactive: 97%
75 | O=C(NCc1ccccc1)C1CCN(C(=O)c2cnn(-c3ccccc3)c2-n2cccc2)CC1 | inactive: 111%
76 | C=Cc1ccc(Cn2c(=O)n(-c3ccc(C)cc3)c(=O)c3c2c2cc(OC)ccc2n3C)cc1 | inactive: 79%
77 | CCOc1ccc2nc(N3CCCC(C(=O)NCc4ccccc4Cl)C3)sc2c1 (centres undefined) | inactive: 62%
78 | COc1ccc2cc(C(=O)NCc3ccc4c(c3)CCN4C(=O)c3ccc(C)cc3)[nH]c2c1 | inactive: 75%
79 | CCOc1ccc(NC(=O)Cn2c(=O)n(CC3CCCO3)c(=O)c3ccccc32)cc1 (centres undefined) | inactive: 82%
80 | CCc1ccc(-n2nc(C)c3c(C)cc(=O)n(CC(=O)NCc4ccc(C)cc4)c32)cc1 | inactive: 71%
81 | CCc1ccc(NC(=O)CSc2nc(C)cc(COC)c2C#N)cc1 | inactive: 84%
82 | CC(C)CCNc1nc2c(S(=O)(=O)c3ccc(Br)cc3)nnn2c2ccsc12 | inactive: 96%
83 | O=C(NCc1cccnc1)C(=O)NCC(c1cccnc1)N1CCN(c2ccccc2)CC1 (centres undefined) | inactive: 53%
84 | CCc1cc2c(cc3c(=O)n(CC(=O)N4CCN(c5cc(Cl)ccc5C)CC4)nc(CC)n32)s1 | inactive: 83%
85 | CCc1nc2ccccc2c(NC(=O)CN(CC)CC)c1C | inactive: 102%
86 | CCCCCCc1cc2cc(-c3nnc(-c4ccc(C)cc4)o3)c(=O)oc2cc1O | inactive: 124%
87 | Cc1ccc(CNC(=O)C2CCCN(c3nnc(-n4c(C)ccc4C)s3)C2)cc1 (centres undefined) | inactive: 79%
88 | CCc1ccc(NC(=O)Cn2c(=O)oc3cc(S(=O)(=O)NCc4ccccc4)ccc32)cc1 | inactive: 102%
89 | COc1ccc(NC(=O)CSc2nc(O)c(C/C=C/c3ccccc3)c(=O)[nH]2)cc1 | inactive: 94%
